{
  "source": "PubChem BioAssay AID463173",
  "about": "(ICCB-Longwood Screening Facility, Harvard Medical School, 2010)",
  "note": "Among all 52,000 compounds or so, about 1,700 (3.3%) were called active. No stated cut-off is given here; in the data, active means survival mostly below about 52% (no sharp cut-off); inactive means mostly above about 56%. The list shows a part of the results.",
  "data": [
    {"tested_on": "Wild type", "test": "S. aureus survival, RN4220 and DeltatarO strains – OD600, teichoic acid synthesis inhibitors, primary screen (AID 463173)", "conditions": "S. aureus RN4220 wild type/DeltatarO growth, OD600, 18 h, hits give low values, screened at 18.75 µg/mL (by protocol)", "values": [
      {"smiles": "CC(C)C(=O)CC(c1ccccc1)C1C(=O)NC(=O)NC1=O", "note": "(configuration not stated)", "survival": "inactive: 105%"},
      {"smiles": "Cc1ccc(Cc2nc3ccccc3nc2SCC(=O)N2CCCCC2)cc1", "survival": "inactive: 73%"},
      {"smiles": "O=c1oc2c(F)cc(F)cc2cc1S(=O)(=O)c1ccc(F)cc1", "survival": "inactive: 104%"},
      {"smiles": "CCOc1ccc(CN2CCN(S(=O)(=O)c3ccc(Cl)cc3)CC2)cc1", "survival": "inactive: 55%"},
      {"smiles": "CCOc1ccc(N(CC)C(=O)c2cc3c(=O)oc4ccccc4c3s2)cc1", "survival": "inactive: 64%"},
      {"smiles": "O=C(Cn1cc(S(=O)(=O)c2ccc(F)cc2)c(=O)c2cc3c(cc21)OCO3)Nc1ccccc1", "survival": "inactive: 85%"},
      {"smiles": "Cc1ccn2c(=O)c(C(=O)Nc3ccc(F)c(C(F)(F)F)c3)cnc2c1", "survival": "inactive: 84%"},
      {"smiles": "Cc1oc(-c2ccccc2F)nc1CN1CCC(C(=O)NCCc2ccc(Cl)cc2)CC1", "survival": "inactive: 79%"},
      {"smiles": "CCOC(=O)Cn1nnc(-c2ccccc2)n1", "survival": "inactive: 98%"},
      {"smiles": "CCOc1ccc(-c2nonc2NC(=O)c2oc3ccc(Cl)cc3c2C)cc1", "survival": "inactive: 85%"},
      {"smiles": "Cc1cccc(NC(=O)C(=O)NCC(c2cccnc2)N2CCc3ccccc32)c1C", "note": "(configuration not stated)", "survival": "inactive: 81%"},
      {"smiles": "N#CCC(=O)Nc1nccs1", "survival": "inactive: 108%"},
      {"smiles": "CCOC(=O)c1c(CC(C)C)csc1NC(C)=O", "survival": "inactive: 104%"},
      {"smiles": "COc1ccc(-c2nnn3c2nc(NCc2ccccc2)c2ccccc23)cc1", "survival": "inactive: 96%"},
      {"smiles": "COc1cccc(NC(=O)c2oc3ccccc3c2NC(=O)COc2ccccc2C)c1", "survival": "inactive: 125%"},
      {"smiles": "COC(=O)c1ccccc1NC(=O)CCCn1nc(C)c2sc3ccccc3c2c1=O", "survival": "inactive: 82%"},
      {"smiles": "CC1=C(C(=O)Nc2ccc(C)cc2C)C(CC(C)C)n2nc(SCc3ccccc3C)nc2N1", "note": "(configuration not stated)", "survival": "inactive: 95%"},
      {"smiles": "CCOc1ccc(-c2cc(C(=O)NCc3ccc(OCC)c(OC)c3)[nH]n2)cc1", "survival": "inactive: 58%"},
      {"smiles": "O=c1c2sc3ccccc3c2n(Cc2ccc(F)cc2)c(=O)n1Cc1ccccc1", "survival": "inactive: 140%"},
      {"smiles": "CCc1cccc(CC)c1NC(=O)CCS(=O)(=O)c1ccc(Br)cc1", "survival": "inactive: 127%"},
      {"smiles": "Cc1ccc(NC(=O)CSc2ncccc2C(=O)Oc2ccccc2Cl)cc1Cl", "survival": "inactive: 74%"},
      {"smiles": "N=c1c2c3c(sc2ncn1CCCn1ccnc1)CCCCC3", "survival": "inactive: 105%"},
      {"smiles": "COc1ccc2[nH]cc(CCNC(=O)Nc3c(C)cccc3C)c2c1", "survival": "inactive: 96%"},
      {"smiles": "Cc1cc(C)n2nc(SCC(=O)Nc3ccc(O)cc3)nc2n1", "survival": "inactive: 82%"},
      {"smiles": "Cc1cc(NC(=O)CN(C)S(=O)(=O)c2ccc3c(c2)CCCC(=O)N3)ccc1Br", "survival": "inactive: 55%"},
      {"smiles": "Cc1ccccc1-c1nc2c(c(SCc3cccc(Cl)c3)n1)Cc1c(CO)cnc(C)c1O2", "survival": "inactive: 77%"},
      {"smiles": "CCOC(=O)c1cc(-c2ccccc2)n(CCC(=O)Nc2ccc(OC)c(Cl)c2)c1C", "survival": "inactive: 101%"},
      {"smiles": "COc1cc(C)ccc1OCCSc1nc2ccc(NC(=O)c3ccc4c(c3)OCO4)cc2s1", "survival": "inactive: 85%"},
      {"smiles": "O=C(Nc1cc(Cl)ccc1O)c1nc2ncccn2n1", "survival": "inactive: 106%"},
      {"smiles": "O=C(O)C12CC3CC(CC(S)(C3)C1)C2", "survival": "inactive: 106%"},
      {"smiles": "COc1cc(-c2nc(Cn3nnc(C(=O)Nc4ccccc4C)c3C)c(C)o2)cc(OC)c1OC", "survival": "inactive: 77%"},
      {"smiles": "CCc1ccc(NC(=O)Cn2c(=O)n(CCCC(=O)NCc3ccccc3OC)c(=O)c3ccccc32)cc1", "survival": "inactive: 133%"},
      {"smiles": "Cc1ccc(C)c(NC(=O)c2ccc(=O)n(Cc3ccc(F)cc3)c2)c1", "survival": "inactive: 110%"},
      {"smiles": "COc1ccc(C)cc1NC(=O)c1ccc2c(c1)N(Cc1cccc(Cl)c1)C(=O)c1ccccc1S2=O", "note": "(configuration not stated)", "survival": "inactive: 101%"},
      {"smiles": "CC(=O)N1c2ccc(S(=O)(=O)N3CCCCCC3)cc2CC1C(=O)NCc1cccc(F)c1", "note": "(configuration not stated)", "survival": "inactive: 65%"},
      {"smiles": "CC1Oc2ccccc2N(CC(=O)NC2CC2)C1=O", "note": "(configuration not stated)", "survival": "inactive: 106%"},
      {"smiles": "Clc1cccc(N2CCN(c3nc4ccccc4c4nc(-c5cccnc5)nn34)CC2)c1", "survival": "inactive: 79%"},
      {"smiles": "Cc1ccc(S(=O)(=O)c2nc(-c3cccs3)oc2SC(C)c2ccccc2)cc1", "note": "(configuration not stated)", "survival": "inactive: 44%"},
      {"smiles": "CCCCC(=O)Nc1cc(-c2nc3ccccc3o2)ccc1OC", "survival": "inactive: 24%"},
      {"smiles": "CCS(=O)(=O)N1CCc2cc(C(=O)N3CCN(c4ccccc4)CC3)ccc21", "survival": "inactive: 101%"},
      {"smiles": "CCOc1ccc(CC(=O)NCCS(=O)(=O)N2CCN(c3ccccc3OC)CC2)cc1", "survival": "inactive: 72%"},
      {"smiles": "CCOC(=O)c1noc2ncn(CC(=O)Nc3ccc(OC)c(Cl)c3)c(=O)c12", "survival": "inactive: 90%"},
      {"smiles": "Cc1cccc(CNC(=O)C2CCN(S(=O)(=O)c3cccc4nonc34)CC2)c1", "survival": "inactive: 51%"},
      {"smiles": "CCCC(=O)OCc1cnc(C)c2oc(=O)c(C(=O)Nc3ccc(F)cc3C)cc12", "survival": "inactive: 72%"},
      {"smiles": "CC1CCN(C(=O)CS(=O)(=O)Cc2ccccc2)CC1", "survival": "inactive: 102%"},
      {"smiles": "COc1ccc(-c2noc(CNC(=O)c3ccc(OC)cc3OC)n2)cc1", "survival": "inactive: 93%"},
      {"smiles": "O=S(=O)(NCc1ccco1)c1ccc(S(=O)(=O)N2CCCCC2)cc1", "survival": "inactive: 99%"},
      {"smiles": "CCC1=Nc2cc(C(=O)N3CCC(C)CC3)ccc2Sc2ccc(C)cc21", "survival": "active: -1%"},
      {"smiles": "Cc1ccc(C)c(NC(=O)C2CCCN2S(=O)(=O)c2ccc3c(c2)CCCC(=O)N3)c1", "note": "(configuration not stated)", "survival": "inactive: 79%"},
      {"smiles": "Cc1ccc2[nH]cc(NC(=O)NCCO)c(=O)c2c1", "survival": "inactive: 117%"},
      {"smiles": "Cc1ccc2nc(N3CCN(c4ccc(F)cc4)CC3)c3nnnn3c2c1", "survival": "active: 14%"},
      {"smiles": "CCOc1ccc(CCNC(=O)C2CC(=O)N(CCc3ccc(OC)c(OC)c3)C2)cc1OCC", "note": "(configuration not stated)", "survival": "inactive: 77%"},
      {"smiles": "COC(=O)c1cn(-c2ccccc2)nc1C(=O)OC", "survival": "inactive: 103%"},
      {"smiles": "COc1cccc(-c2noc(COc3cccc(C)c3C)n2)c1", "survival": "inactive: 85%"},
      {"smiles": "CCCCN(CC)CCNC(=O)c1nn(-c2ccc(OC)cc2)c(=O)c2c1c1ccccc1n2C", "survival": "inactive: 75%"},
      {"smiles": "N#C/C(=C\\c1ccccc1)c1nc(-c2cc3c(ccc4ccccc43)oc2=O)cs1", "survival": "inactive: 130%"},
      {"smiles": "CCOC(=O)c1c(NC(=O)COc2ccc(OC)cc2)sc(C(=O)N(CC)CC)c1C", "survival": "active: -8%"},
      {"smiles": "CCOC(=O)c1cccc(NC(=O)Cn2cnc3nc4c(cc3c2=O)CCCC4)c1", "survival": "inactive: 73%"},
      {"smiles": "O=c1sc2ccccc2n1CCCOc1ccccc1", "survival": "inactive: 116%"},
      {"smiles": "CCN(CC)CCCNC(=O)c1ccc2c(c1)NC(=O)C(CS(=O)(=O)Cc1ccc(F)cc1Cl)N2", "note": "(configuration not stated)", "survival": "inactive: 159%"},
      {"smiles": "COCCNC(=O)c1sc2nc3n(c(=O)c2c1C)CCC3", "survival": "inactive: 85%"},
      {"smiles": "CCc1ccc(NS(=O)(=O)c2ccc3[nH]cc(C(=O)NCCc4ccccc4)c(=O)c3c2)cc1", "survival": "inactive: 97%"},
      {"smiles": "COc1ccc(N2CC(c3nc(-c4ccccc4C)no3)CC2=O)cc1Cl", "note": "(configuration not stated)", "survival": "inactive: 88%"},
      {"smiles": "Nc1cccc(Cl)c1N1CCOCC1", "survival": "inactive: 110%"},
      {"smiles": "CS(=O)(=O)N(CC(=O)O)c1ccc(Cl)cc1", "survival": "inactive: 121%"},
      {"smiles": "Cc1ccc(-c2onc(C)c2C)cc1S(=O)(=O)N1CCc2ccccc21", "survival": "inactive: 117%"},
      {"smiles": "Cc1nc(-c2ccc(Cl)cc2)sc1CCNC(=O)C(=O)Nc1ccccc1C#N", "survival": "inactive: 74%"},
      {"smiles": "COC(=O)c1ccc(NC(=O)C(c2ccccc2)N2Cc3ccccc3C2=O)cc1", "note": "(configuration not stated)", "survival": "inactive: 64%"},
      {"smiles": "Cc1cccc(CCNC(=O)CCc2c(C)nc3c(-c4ccc(F)cc4)c(C)nn3c2C)c1", "survival": "inactive: 92%"},
      {"smiles": "CN1CCN(c2ccc(-c3nc(-c4ccccc4)no3)cc2[N+](=O)[O-])CC1", "survival": "inactive: 27%"},
      {"smiles": "COc1ccc(N2CCN(C(=O)c3cc4c(s3)-c3c(C)cccc3OC4)CC2)cc1", "survival": "inactive: 91%"},
      {"smiles": "Cc1cc(C)cc(NC(=O)C2CCCN(c3nnc(-n4c(C)ccc4C)s3)C2)c1", "note": "(configuration not stated)", "survival": "inactive: 75%"},
      {"smiles": "C=Cn1c(C)c(C(C#N)=C(C#N)C#N)c2c1CCCC2", "survival": "inactive: 55%"},
      {"smiles": "COCCn1c(SCC(=O)Nc2ccc(Br)cc2)nc2c([nH]c3ccccc32)c1=O", "survival": "inactive: 92%"},
      {"smiles": "CCCc1ccc(OC(=O)c2sc3ncn(Cc4cccc(F)c4)c(=O)c3c2C)cc1", "survival": "inactive: 67%"},
      {"smiles": "COc1ccc(NC(=O)Cn2c(SCc3c(F)cccc3Cl)nc3ccncc32)cc1OC", "survival": "inactive: 77%"},
      {"smiles": "Nc1ccccc1-n1ccnc1", "survival": "inactive: 100%"},
      {"smiles": "CCN(CC)c1ccc(NC(=O)C2CCCN(S(=O)(=O)c3ccc4c(c3)oc(=O)n4C)C2)c(C)c1", "note": "(configuration not stated)", "survival": "inactive: 121%"},
      {"smiles": "Cc1ccc(NC(=O)C2CCCN(S(=O)(=O)c3ccc(C)cc3)C2)cc1", "note": "(configuration not stated)", "survival": "inactive: 83%"},
      {"smiles": "CCOC(=O)c1c(S(=O)(=O)N2CCN(c3cc(Cl)ccc3C)CC2)c(C)n(C)c1C", "survival": "inactive: 124%"},
      {"smiles": "COc1ccccc1CSc1nc2n(n1)C(c1ccccc1)C(C(=O)Nc1ccc(C)cc1)=C(C)N2", "note": "(configuration not stated)", "survival": "inactive: 89%"},
      {"smiles": "COc1ccccc1-c1ncnn1-c1sc2c(c1C#N)CCCCC2", "survival": "active: 1%"},
      {"smiles": "COc1cc(NS(=O)(=O)c2ccc3c(c2)OCC(C(=O)N2CCCC2)O3)cc(OC)c1", "note": "(configuration not stated)", "survival": "inactive: 77%"},
      {"smiles": "COc1ccc(NC(=O)Cn2ncc3c4ccccc4n(Cc4ccccc4)c3c2=O)cc1OC", "survival": "inactive: 86%"},
      {"smiles": "Cc1ccc(NC(=O)Cn2nc(-c3ccc(Cl)cc3)c3ccccc3c2=O)cc1", "survival": "inactive: 79%"},
      {"smiles": "CCOc1ccc(Cc2nc(C)c(CC(N)=O)c(=O)[nH]2)cc1", "survival": "inactive: 99%"},
      {"smiles": "CCCCNC(=O)c1ccc(-c2nc(CN3CCc4ccccc43)c(C)o2)cc1", "survival": "inactive: 128%"},
      {"smiles": "COc1ccc(OC)c(S(=O)(=O)NCCc2sc(C)nc2C)c1", "survival": "inactive: 65%"},
      {"smiles": "Cc1c(Cl)cccc1NC(=O)CCS(=O)(=O)c1cccc2nsnc12", "survival": "inactive: 88%"},
      {"smiles": "Cc1ccc(Nc2c3c(nc4ccccc24)CCC3)cc1F", "survival": "active: 2%"},
      {"smiles": "Cc1ccc(CNC(=O)CCN2C(=O)C(C)Oc3ccc(C)cc32)cc1", "note": "(configuration not stated)", "survival": "inactive: 121%"},
      {"smiles": "CCc1ccc(-c2nc3cc(NC(=O)c4ccc(F)cc4)ccc3o2)cc1", "survival": "inactive: 101%"}
    ]}
  ]
}
